Data taken from PMC9303552 (Angewandte Chemie (International Ed. in English), 2022).

Molecular target: T1, GST-CHIP (carboxyl terminus of Hsp70 interacting protein, full length) (human, UniProt Q9UNE7 1-303)
T1 sequence (looked up): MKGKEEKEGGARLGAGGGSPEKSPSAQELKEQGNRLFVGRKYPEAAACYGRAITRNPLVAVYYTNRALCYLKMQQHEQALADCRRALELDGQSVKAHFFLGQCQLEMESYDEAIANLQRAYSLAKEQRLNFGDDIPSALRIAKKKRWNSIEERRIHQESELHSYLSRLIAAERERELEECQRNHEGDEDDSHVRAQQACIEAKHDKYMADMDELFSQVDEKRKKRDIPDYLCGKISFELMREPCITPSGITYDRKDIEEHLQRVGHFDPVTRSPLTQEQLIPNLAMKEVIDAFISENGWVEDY
Test: NMR titration

B1: […] (domain or fragment)
chain: not shown
  binding result: binds
